# The supplement of paper PMC8007513
# Where a name gives a salt, the structure may show the parent alone. ± gives the standard error. The whole screen tested about 1,300 compounds, of which about 75 (6%) showed an effect of 50% or more. The list shows a part of the results.
# Tested on: Trichoderma virens ATCC 9645
# Assay: growth yield (OD600) relative to untreated control; higher = less growth inhibition
# Settings: compound concentration: 100 uM
# Procedure, shortened: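 Library compounds (100 μM final), with or without a co-applied biocide (200 ng ml^−1), were added to 100 μl aliquots of Trichoderma virens ATCC 9645 spores at 15,000 spores ml^−1 in potato dextrose broth. Cultures were grown at 30 °C in 96-well plates, and OD600 was measured at 40 h and 72 h. Each growth value is a mean of duplicate screens, expressed relative to the control with neither agent.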
SMILES,growth yield (40 h) [%],growth yield (72 h) [%]
CN1[C@@H]2CC[C@H]1C[C@@H](OC(=O)C(CO)c1ccccc1)C2 (stereo partly specified) [Atropine sulfate monohydrate],104 ± 1.6,103 ± 2.2
CC(C)C[C@H]1C(=O)N2CCC[C@H]2[C@]2(O)O[C@](NC(=O)[C@@H]3C=C4c5cccc6[nH]c(Br)c(c56)C[C@H]4N(C)C3)(C(C)C)C(=O)N12 [Bromocryptine mesylate],101 ± 1.1,104.8 ± 0.94
C[C@]12CCC(=O)C(O)=C1CC[C@@H]1[C@@H]2CC[C@]2(C)C(=O)CC[C@@H]12 [Formestane],101 ± 3.2,100 ± 2.8
CNC(C)(C)Cc1ccccc1 [Mephentermine hemisulfate],99.9 ± 5.2,95 ± 2.1
COc1ccc(C(CN(C)C)C2(O)CCCCC2)cc1 (stereo unspecified) [Venlafaxine],95.9 ± 5.7,94.8 ± 4.2
CN(C)C(=O)Oc1cccc([N+](C)(C)C)c1 [Neostigmine bromide],94.7,96.5
CNC(=O)Oc1ccc2c(c1)[C@]1(C)CCN(C)[C@@H]1N2C [Eserine hemisulfate salt],102.5 ± 0.16,102.8 ± 0.42
CC(C)(N)Cc1ccccc1 [Phentermine hydrochloride],105 ± 1.6,100.2 ± 0.94
CCNCC(O)c1cccc(O)c1 (stereo unspecified) [Etilefrine hydrochloride],105 ± 3,103.1 ± 0.94
O=c1[nH]c2ccccc2n1C1CCN(CCCC(c2ccc(F)cc2)c2ccc(F)cc2)CC1 [Pimozide],94.99 ± 0.64,110 ± 2.7
CN(C)C(=O)Oc1ccc[n+](C)c1 [Pyridostigmine iodide],104 ± 4.1,104 ± 3.2
C#CCN(C)[C@H](C)Cc1ccccc1 [Selegiline hydrochloride],102 ± 1.4,104 ± 5
C[C@]12CC[C@@H](O)C[C@H]1CC[C@@H]1[C@@H]2CC[C@]2(C)C(=O)CC[C@@H]12 [3-alpha-Hydroxy-5-beta-androstan-17-one],80.8 ± 1.4,82.6 ± 1.5
CC1OC(OC2/C=C/C=C/C=C/C=C/CC/C=C/C=C/[C@H](C)[C@@H](O)[C@@H](C)[C@H](C)OC(=O)CC(O)CC(O)CC(O)CCC(O)C(O)C[C@]3(O)CC(O)C(C(=O)O)C(C2)O3)C(O)C(N)C1O (stereo partly specified) [Nystatine],97.4 ± 5.6,107.3 ± 0.94
NCCCNCCSP(=O)(O)O [Amifostine],101 ± 3.6,99.2 ± 1.9
O=C(CCCN1CCC(n2c(=O)[nH]c3ccccc32)CC1)c1ccc(F)cc1 [Benperidol],102 ± 5.2,99.9 ± 7.2
C=CCC1(CC(C)C)C(=O)NC(=O)NC1=O [Butalbital],98.2,96.5
C[C@@H]1CN([C@H]2CC[C@](C#N)(c3ccc(F)cc3)CC2)CC[C@]1(C(=O)O)c1ccccc1 [Levocabastine hydrochloride],105 ± 3.3,99.3 ± 1.6
CCC(=O)O[C@H]1CC[C@H]2[C@@H]3CCC4=CC(=O)CC[C@]4(C)[C@H]3CC[C@]12C [Testosterone propionate],96.7 ± 10,99.1 ± 7.5
COc1ccc(OC)c(C(O)C(C)N)c1 (stereo unspecified) [Methoxamine hydrochloride],100.7 ± 1e-14,101.6 ± 0.32
CCC1(C)CC(=O)NC(=O)C1 [Bemegride],99.9 ± 5.6,97.4 ± 2

SMILES,growth yield (40 h) [%],growth yield (72 h) [%]
CCCC(C)(COC(N)=O)COC(=O)NC(C)C (stereo unspecified) [Carisoprodol],103 ± 4.1,104 ± 2.7
C[N+]1(C)CCCC(OC(=O)C(O)(c2ccccc2)c2ccccc2)C1 (stereo unspecified) [Mepenzolate bromide],93.4 ± 0.32,87.9 ± 1.3
NC(=O)OCCCc1ccccc1 [Phenprobamate],104 ± 6.3,101 ± 4.6
OC(c1ccccc1)(c1ccccc1)C1CCNCC1 [Azacyclonol],99.1 ± 3.8,99.4 ± 1.5
COC[C@@H](NC(C)=O)C(=O)NCc1ccccc1 [Lacosamide],102 ± 1.8,103 ± 2.7
C[C@]12C/C(=C/O)C(=O)C[C@@H]1CC[C@@H]1[C@@H]2CC[C@@]2(C)[C@H]1CC[C@]2(C)O [Oxymetholone],96.9 ± 9.2,91.5 ± 4.8
C=C1C[C@@H]2[C@H](CC[C@]3(C)C(=O)CC[C@@H]23)[C@@]2(C)C=CC(=O)C=C12 [Exemestane],102 ± 7.5,102 ± 5.1
CC(=O)[C@H]1CC[C@H]2[C@@H]3CC[C@H]4C[C@H](O)CC[C@]4(C)[C@H]3C(=O)C[C@]12C [Alfaxalone],90.9 ± 3.8,92.82 ± 0.73
CN1C(=O)CCS(=O)(=O)C1c1ccc(Cl)cc1 (stereo unspecified) [Chlormezanone],99.91 ± 0.48,103 ± 2.3
C[C@]12COC(=O)C[C@@H]1CC[C@@H]1[C@@H]2CC[C@@]2(C)[C@H]1CC[C@]2(C)O [Oxandrolone],93.2 ± 1.4,93.4 ± 2
COc1cc2c(c(OC)c1OC)-c1ccc(OC)c(=O)cc1[C@@H](NC(C)=O)CC2 [Colchicine],98.48 ± 0.32,103.1 ± 0.94
CC[N+]1(C)CCCC(OC(=O)C(O)(c2ccccc2)c2ccccc2)C1 (stereo unspecified) [Pipenzolate bromide],102 ± 1.6,92.71 ± 0.21
CCCCCC[C@H]1C(=O)O[C@H](C)[C@H](NC(=O)c2cccc(NC=O)c2O)C(=O)O[C@@H](C)[C@@H]1OC(=O)CC(C)C [Antimycin A],27.5 ± 1.1,49.6 ± 2.6
c1ccc2c(c1)OCC(C1=NCCN1)O2 (stereo unspecified) [Idazoxan hydrochloride],95.6 ± 2.2,95.23 ± 0.21
C[C@]12CC[C@H](O)C[C@H]1CC[C@@H]1[C@@H]2CC[C@]2(C)[C@@H](C3=CC(=O)OC3)CC[C@]12O [Digitoxigenin],99.3 ± 5.9,102 ± 5.8
CC(C)c1cccc(C(C)C)c1O [Propofol],99.12 ± 0.95,98.2 ± 1.3
Oc1ccc2c3c1O[C@H]1[C@@H](O)CC[C@@]4(O)[C@@H](C2)N(CC2CCC2)CC[C@]314 [Nalbuphine hydrochloride],98.3 ± 1.1,99.8 ± 1.7
CN1C[C@H](CNC(=O)OCc2ccccc2)C[C@@H]2c3cccc4c3c(cn4C)C[C@H]21 [Metergoline],94 ± 2.9,109 ± 3.2
O=C(NCNC(=O)NC1C(=O)NC(=O)N1CO)NC1C(=O)NC(=O)N1CO (stereo unspecified) [Imidurea],102 ± 3.6,99.4 ± 2.1
CC(=O)O[C@H]1CC[C@@]2(C)C(=CC[C@@H]3[C@@H]2CC[C@]2(C)C(=O)CC[C@@H]32)C1 [Dehydroisoandosterone 3-acetate],91.7 ± 1.4,92.08 ± 0.42
O=[N+]([O-])O[C@H]1CO[C@H]2[C@@H]1OC[C@H]2O[N+](=O)[O-] [Isosorbide dinitrate],93.6 ± 4,87.7 ± 2.3

SMILES,growth yield (40 h) [%],growth yield (72 h) [%]
C=C1CC[C@@]2(O)[C@H]3Cc4ccc(O)c5c4[C@@]2(CCN3CC2CC2)[C@H]1O5 [Nalmefene hydrochloride],103 ± 7,98.8 ± 6.1
O=C(CCCN1CCC2(CC1)C(=O)NCN2c1ccccc1)c1ccc(F)cc1 [Spiperone],101 ± 2.4,105 ± 2.9
CC(N)C(O)c1ccccc1 (stereo unspecified) [Phenylpropanolamine hydrochloride],101.2 ± 0.48,104 ± 2.4
NCC1(CC(=O)O)CCCCC1 [Gabapentin],99.4 ± 1.3,99.11 ± 0.32
CCOC(=O)c1cncn1[C@H](C)c1ccccc1 [Etomidate],97.4 ± 6.2,89 ± 4.3
CC(O)(CS(=O)(=O)c1ccc(F)cc1)C(=O)Nc1ccc(C#N)c(C(F)(F)F)c1 (stereo unspecified) [Bicalutamide],98.3 ± 4.3,95.1 ± 3
C[C@@H]1C[C@@H]([C@H](O)CC2CC(=O)NC(=O)C2)C(=O)[C@@H](C)C1 [Cycloheximide],46.7 ± 7.3,75.5 ± 5.5
Cc1cc(C(C#N)c2ccc(Cl)cc2)c(Cl)cc1NC(=O)c1cc(I)cc(I)c1O (stereo unspecified) [Closantel],98.5,99.6
CC[C@@H](CO)NC(=O)[C@@H]1C=C2c3cccc4[nH]cc(c34)C[C@H]2N(C)C1 [Methylergometrine maleate],95.3 ± 3.2,98.9 ± 1.6
O=c1[nH]oc2c1CCNC2 [THIP Hydrochloride],99.4 ± 1.9,99.6 ± 2.5
CN[C@@H]1[C@@H](O)[C@@H](O[C@@H]2[C@@H](O)[C@H](O[C@H]3O[C@H](CN)CC[C@H]3N)[C@@H](N)C[C@H]2N)OC[C@]1(C)O.CN[C@@H]1[C@@H](O)[C@@H](O[C@@H]2[C@@H](O)[C@H](O[C@H]3O[C@H]([C@@H](C)N)CC[C@H]3N)[C@@H](N)C[C@H]2N)OC[C@]1(C)O.CN[C@@H]1[C@@H](O)[C@@H](O[C@@H]2[C@@H](O)[C@H](O[C@H]3O[C@H]([C@@H](C)NC)CC[C@H]3N)[C@@H](N)C[C@H]2N)OC[C@]1(C)O [Gentamicine sulfate],101,97.3
O=C1CC[C@@]2(O)[C@H]3Cc4ccc(O)c5c4[C@@]2(CCN3CC2CC2)[C@H]1O5 [Naltrexone hydrochloride dihydrate],105 ± 6.2,105 ± 5.3
CN1CCN(C(=O)O[C@H]2c3nccnc3C(=O)N2c2ccc(Cl)cn2)CC1 [Eszopiclone],95.1 ± 4,98 ± 3.4
"CN1CCC2(C)c3cc(O)ccc3N(C)C12 (single isomer, unassigned; (-)) [(-)-Eseroline fumarate salt]",95.78 ± 0.16,91.66 ± 0.63
CC(NC(C)(C)C)C(=O)c1cccc(Cl)c1 (stereo unspecified) [Bupropion hydrochloride],103.2 ± 0.64,104 ± 1.1
C#C[C@]1(O)CC[C@H]2[C@@H]3CCC4=CC(=O)CCC4=C3C=C[C@@]21CC [Gestrinone],107 ± 9.4,96.8 ± 7.2
CN1[C@@H]2C[C@@H](OC(=O)[C@H](CO)c3ccccc3)C[C@H]1[C@@H]1O[C@@H]12 [Scopolamine hydrochloride],101 ± 4.6,97.3 ± 2.3
"NCC(CC(=O)O)c1ccc(Cl)cc1 (racemic) [Baclofen (R,S)]",105 ± 4.1,105 ± 4.7
N[C@@H]1C[C@H]1c1ccccc1 [Tranylcypromine hydrochloride],99.4 ± 2.2,99.21 ± 0.42
C=CCN1CC[C@]23c4c5ccc(O)c4O[C@H]2C(=O)CC[C@@]3(O)[C@H]1C5 [Naloxone hydrochloride],101 ± 1.6,103 ± 1.1
CCCC(C)C1(CC)C(=O)NC(=O)NC1=O (stereo unspecified) [Pentobarbital],101.3 ± 0.95,102 ± 1.7
